Assay results: the RNAGym collection of RNA variant scans (doi:10.1093/nar/gkz1192)
The source gives no read counts; variants with many changes may rest on few reads.

B1: CPEB3 Ribozyme (parent)
chain: UAACAGGGGGCCACAGCAGAAGCGUUCACGUCGCAGCCCCUGUCAGAUUCUGGUGAAUCUGCGAAUUCUGCUGUAUAUCUC

Variants of: B1
Test: self-cleavage, relative activity (ratio to wild type); higher = more cleavage; in vitro, sequencing
Procedure, shortened: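 After error-prone PCR and barcoding, CPEB3 ribozyme mutant libraries were transcribed with T7 RNA polymerase at 37°C for 5 hours, then given 15 min with DNase I before an EDTA stop, and they cleaved during both steps. Reverse transcription with template switching preceded Illumina sequencing. Relative activity divides a variant's cleaved/total read fraction by the unmutated ribozyme's. At least 5 reads were required per variant, and three batches were averaged.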

| Variant | self-cleavage |
| --- | --- |
| G6U U43C U54C | 0.11 |
| G6U U48C A56U | 0.13 |
| G6U U51A A64G U67G | 0.05 |
| G6U U51C A65G | 0.1 |
| G6U U51C G70C | 0.08 |
| G6U U51C U72C | 0.2 |
| G6U U69A U72C A75G | 0.15 |
| G7A A13U A15G U25C A57G U67C U78C | 0.08 |
| G7A A13U A18U U25C A28U U41C A77G | 0.02 |
| G7A A15G A65U | 0.22 |
| G7A A15G C23G A64G | 0.27 |
| G7A A15G U25C A56U G70C U72G | 0.19 |
| G7A A15U A21G C40U | 0.31 |
| G7A A15U A64G U76C | 0.2 |
| G7A A18G A35U A65G | 0.05 |
| G7A A18G A56G | 0.34 |
| G7A A18G A64G A65G | 0.14 |
| G7A A18G C23U U43A A57G | 0.05 |
| G7A A18G U26A U31C C40A A57G G61A | 0.04 |
| G7A A18G U60A U72G | 0.14 |
| G7A A18U A28G A35U C50U U72G A75G | 0.04 |
| G7A A18U A47G | 0.06 |
| G7A A20G A35U | 0.09 |
| G7A A20G U26A U54A A77G | 0.06 |

| Variant | self-cleavage |
| --- | --- |
| G7A A20G U54C | 0.38 |
| G7A A20G U76C C79A | 0.28 |
| G7A A20U A35U A56U U67C U72C | 0.04 |
| G7A A21G A35G A47G G63U U69C | 0.13 |
| G7A A21G A64G U66C | 0.18 |
| G7A A21G U41C G63U A64C | 0.19 |
| G7A A21G U41C U51C A56G U80C | 0.15 |
| G7A A21G U60C A64G U67C C68A | 0.07 |
| G7A A28G U31G U49C | 0.05 |
| G7A A28G U31G U49C A64U U76C | 0.12 |
| G7A A28G U41C | 0.08 |
| G7A A28U A56U | 0.06 |
| G7A A28U A57G | 0.15 |
| G7A A28U U54C U80C | 0.09 |
| G7A A35G U51C U80A | 0.24 |
| G7A A35U U41A | 0.12 |
| G7A A35U U41A A56G U72A | 0.08 |
| G7A A35U U48C | 0.17 |
| G7A A45U C62U U69C U72C | 0.06 |
| G7A A56U U58C U72A | 0.07 |
| G7A A65G U69C U76A | 0.1 |
| G7A C11U A18G | 0.06 |
| G7A C11U A28U | 0.06 |
| G7A C11U A45G | 0.24 |

| Variant | self-cleavage |
| --- | --- |
| G7A C17G U26C C32A U41C U72G | 0.04 |
| G7A C17U G30U U41C U80C | 0.07 |
| G7A C23A U26G U51A G70A | 0.12 |
| G7A C23G U26A A35G U43C | 0.05 |
| G7A C29U C50A A64G U76C | 0.06 |
| G7A C39A U49C | 0.35 |
| G7A G9A U31C | 0.17 |
| G7A G10A A15U U25G U26G U74A | 0.03 |
| G7A G10A U80C | 0.1 |
| G7A G10C A18G C23U U41A U54G | 0.03 |
| G7A G10C U54A A56U U66C | 0.16 |
| G7A G19U A28G U31C A35U | 0.04 |
| G7A G19U A35G U51C U67A | 0.05 |
| G7A G30C C50U | 0.18 |
| G7A G30C U51A U54C A56G U60C A77G | 0.06 |
| G7A G30C U54C A56G A77G | 0.06 |
| G7A G30U U41A U66C U69C U80A | 0.05 |
| G7A G33A A35U | 0.15 |
| G7A G33U U41C U60A U74C | 0.07 |
| G7A U25C A35G A56G U60A C62U | 0.08 |
| G7A U25C A35U A75G | 0.02 |
| G7A U25C U41A U58C | 0.17 |
| G7A U25C U60C | 0.29 |
| G7A U25C U66C U69C | 0.07 |

| Variant | self-cleavage |
| --- | --- |
| G7A U26A U41C A56U | 0.06 |
| G7A U26C A28U A45G U54C | 0.07 |
| G7A U26C C40G A57G G61U | 0.1 |
| G7A U26C G30A U48C C59A U76C | 0.1 |
| G7A U26C U58C A64G U72C | 0.05 |
| G7A U31C C59A | 0.16 |
| G7A U31C G53U A57G C59A | 0.06 |
| G7A U41C G42A U74A U78C | 0.22 |
| G7A U43C A64U U72C | 0.24 |
| G7A U43C U69C | 0.13 |
| G7A U49A G52A | 0.4 |
| G7A U49C A57G | 0.37 |
| G7A U49C U69C A77U | 0.17 |
| G7A U54G U58A A65G | 0.1 |
| G7A U58A U78C | 0.07 |
| G7A U60C U66C | 0.06 |
| G7C A15G A35U A45G U49A | 0.37 |
| G7C A15U C32A U80G | 0.06 |
| G7C A15U G33A G52A A56G | 0.04 |
| G7C A18G A28G A65G U78C | 0.11 |
| G7C A18G A35G U41C U43A U78C | 0.62 |
| G7C A18G A45U A56U U60C U69C | 0.12 |
| G7C A18G U25A A28G G46A A65G U78C | 0.02 |
| G7C A18G U60C A64G | 0.08 |

| Variant | self-cleavage |
| --- | --- |
| G7C A20G U25C | 0.51 |
| G7C A20G U31C U60A | 0.24 |
| G7C A45G U51C U72A | 0.07 |
| G7C A45G U58C U69C | 0.06 |
| G7C A45U G63C A65G U69A U80C | 0.08 |
| G7C C12G G24A | 0.3 |
| G7C C14U G33C C38A U41C U48C | 0.02 |
| G7C C23U A57G U76C | 0.16 |
| G7C C37A U54A | 0.24 |
| G7C G9A A21G A77U | 0.05 |
| G7C G10A G33C A75U | 0.17 |
| G7C G10U A21G A45U U54C A64U | 0.05 |
| G7C G19C C32U G42A U80C | 0.12 |
| G7C G24C U58C | 0.24 |
| G7C G30A C32A A45U U51C A64G | 0.05 |
| G7C U26C U31C A35U | 0.07 |
| G7C U43A U48C A57G U58A U74C A75G | 0.03 |
| G7C U43A U49C U51C | 0.21 |
| G7C U67A U72C | 0.08 |
| G7U A13G A57C | 0.19 |
| G7U A13U A45G U58A U66G | 0.06 |
| G7U A13U G30A C32A | 0.07 |
| G7U A15G A28G G70A | 0.25 |
| G7U A15G U51C U69C | 0.06 |

| Variant | self-cleavage |
| --- | --- |
| G7U A15U C17U A18G U25C U60A | 0.43 |
| G7U A15U U51A A65G | 0.19 |
| G7U A18U A28G U41A | 0.15 |
| G7U A18U A35U U41A | 0.12 |
| G7U A18U A45C U51C U54G A57C U76C | 0.11 |
| G7U A20G A65G U69C | 0.06 |
| G7U A20G U26A U49C | 0.04 |
| G7U A20U A56G U60G | 0.13 |
| G7U A20U A57G U72C A77G | 0.05 |
| G7U A20U U26A C37A A47G U49C | 0.22 |
| G7U A20U U26A C37A U49C | 0.49 |
| G7U A21G A56G U60C C62G | 0.08 |
| G7U A21G U31C A35G C38A G46A U78C | 0.02 |
| G7U A21G U41C A56G A64G | 0.07 |
| G7U A21G U69C U72C | 0.17 |
| G7U A28G A56G | 0.13 |
| G7U A28G A57G | 0.15 |
| G7U A28G C40U A45G U80A | 0.1 |
| G7U A28G U54G A57U G61A G73C | 0.06 |
| G7U A28U U51A G53A | 0.17 |
| G7U A35U U72C | 0.18 |
| G7U A45G U51A | 0.42 |
| G7U A56U U80C | 0.07 |
| G7U A57G U72G | 0.25 |

| Variant | self-cleavage |
| --- | --- |
| G7U A64G U67A | 0.17 |
| G7U C12U A21G | 0.37 |
| G7U C14U U69C | 0.05 |
| G7U C17U A18G | 0.27 |
| G7U C17U A28U A57G U67A | 0.07 |
| G7U C23A U26C U41C A47C U76C | 0.14 |
| G7U C32A A57G U78C | 0.19 |
| G7U C40G U78C U80A | 0.12 |
| G7U C40U G46A U51C U69A C71U | 0.12 |
| G7U G8A A13U G22U | 0.06 |
| G7U G8A U43C U49C U60C U66C U78C | 0.06 |
| G7U G9C A18C U25C U41G A57U | 0.05 |
| G7U G9U C37G U49G G63U | 0.04 |
| G7U G9U U60C | 0.16 |
| G7U G10A U41A U43C U51C A56U A64U | 0.07 |
| G7U G10C C40G U78C | 0.1 |
| G7U G10U A20U A35G U48A U74C | 0.04 |
| G7U G10U G19C A21G C38U | 0.04 |
| G7U G16A A21G U31C | 0.14 |
| G7U G19C A20G U72C | 0.31 |
| G7U G22C U41A G73U | 0.11 |
| G7U G24A U26C U54C | 0.05 |
| G7U G24A U31C | 0.4 |
